Experimental data reported in the supplement of paper PMC8285479.
Structures can show the parent of a compound that is named as a salt. ± gives the standard deviation of the averaged measurements. In all, about 1,900 compounds were measured (“normalised cell viability (NPI; 0 = phenylarsine oxide control, 1 = DMSO control)”: median about 1, lowest 2% from about 0.039 on). The list shows a part of the results.

Tested on: NCI-H1944
Test: normalised cell viability (NPI; 0 = phenylarsine oxide control, 1 = DMSO control) (fraction of DMSO control); NCI-H1944 is a non-small cell lung cancer line; higher = more viable cells (less compound toxicity)
Conditions: 6 days
[1] = glucocorticoid arm: hydrocortisone 2.75 uM co-treatment, compound 1 µM
[2] = glucocorticoid arm: hydrocortisone 2.75 uM co-treatment, compound 5 µM
[3] = glucocorticoid arm: hydrocortisone 2.75 uM pre-treated 2 days and continued, compound 1 µM
[4] = glucocorticoid arm: hydrocortisone 2.75 uM pre-treated 2 days and continued, compound 5 µM
[5] = glucocorticoid arm: vehicle, compound 1 µM
[6] = glucocorticoid arm: vehicle, compound 5 µM
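Note: CTB read-out in 384-well plates, mean of triplicate wells, normalised per plate against 1 µM phenylarsine oxide and 0.1% DMSO, compounds added 24 h after seeding.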

SMILES | normalised cell viability [1] | normalised cell viability [2] | normalised cell viability [3] | normalised cell viability [4] | normalised cell viability [5] | normalised cell viability [6]
Cc1cncc(CN2CCC(=C3c4ccc(Cl)cc4CCc4cccnc43)CC2)c1 [Rupatadine Fumarate] | 1.02 ± 0.011 | 1.03 ± 0.03 | 1.017 ± 0.0058 | 1.04 ± 0.017 | 1.017 ± 0.0058 | 1.013 ± 0.0058
CC(C)C(=O)SCCCCCCC(=O)Nc1nc(-c2ccccc2)cs1 | 1.005 ± 0.0057 | 1.04 ± 0.023 | 1 ± 0.015 | 1.02 ± 0.021 | 1.003 ± 0.0056 | 0.999 ± 0.018
N=c1ccn2c(n1)O[C@H]1[C@H](O)[C@@H](CO)O[C@H]12 [Ancitabine hydrochloride] | 0.16 ± 0.012 | 0.103 ± 0.012 | 0.652 ± 0.079 | 0.211 ± 0.0064 | 0.0511 ± 0.0082 | 0.0465 ± 0.00057
C[N+](C)(C)CCO.[Br-] [Choline bromide] | 1.017 ± 0.0058 | 1 ± 0.019 | 1.017 ± 0.0058 | 1.02 | 0.995 ± 0.0078 | 0.998 ± 0.014
COC(=O)[C@H]1[C@H]2C[C@@H]3c4[nH]c5cc(OC)ccc5c4CCN3C[C@H]2C[C@@H](OC(=O)c2cc(OC)c(OC)c(OC)c2)[C@@H]1OC [Reserpine] | 0.9903 ± 0.0067 | 1.01 ± 0.025 | 0.99 ± 0.0072 | 1.004 ± 0.0078 | 0.999 ± 0.011 | 0.997 ± 0.0052
CC(C)C[C@H](NC(=O)[C@@H](O)[C@H](N)Cc1ccccc1)C(=O)O [Bestatin hydrochloride] | 0.996 ± 0.0046 | 1.02 ± 0.011 | 0.989 ± 0.01 | 1.02 ± 0.033 | 0.979 ± 0.012 | 0.9903 ± 0.0015
CNC(=C[N+](=O)[O-])NCCSCc1ccc(CN(C)C)o1 [Ranitidine] | 1.01 ± 0.011 | 1.01 ± 0.013 | 1.01 ± 0.022 | 0.9923 ± 0.007 | 1.005 ± 0.0092 | 1.003 ± 0.0058
CNC(=C[N+](=O)[O-])NCCSCc1ccc(CN(C)C)o1 [Ranitidine hydrochloride] | 0.9843 ± 0.0055 | 1.04 ± 0.061 | 0.872 ± 0.22 | 0.999 ± 0.011 | 0.99 ± 0.0056 | 0.987 ± 0.0044
C=CCc1ccc(O)c(-c2ccc(O)c(CC=C)c2)c1 [Honokiol] | 0.9927 ± 0.0068 | 0.962 ± 0.036 | 0.971 ± 0.0072 | 0.9857 ± 0.0095 | 1.002 ± 0.0068 | 1 ± 0.0087
O=C(O)CN(CCOCCOCCN(CC(=O)O)CC(=O)O)CC(=O)O | 1.01 ± 0.014 | 0.991 ± 0.017 | 1.03 ± 0.07 | 1 ± 0.0087 | 1.002 ± 0.0072 | 0.9983 ± 0.0029
CSc1cccc(Nc2ncc3cc(-c4c(Cl)cccc4Cl)c(=O)n(C)c3n2)c1 | 0.455 ± 0.027 | 1.09 ± 0.01 | 0.556 ± 0.038 | 1.06 ± 0.021 | 0.259 ± 0.029 | 1.063 ± 0.0058
OCc1ccc(-c2ccc(-c3ccc(CO)s3)o2)s1 | 0.979 ± 0.0061 | 0.0751 ± 0.0071 | 1.017 ± 0.0058 | 0.358 ± 0.022 | 0.621 ± 0.045 | 0.0128 ± 0.0026
O=C(O)c1ccc(Nc2ncc3c(n2)-c2ccc(Cl)cc2C(c2c(F)cccc2F)=NC3)cc1 | – | 0.979 | – | – | – | –
O=S(=O)(NCCNCC=Cc1ccc(Br)cc1)c1cccc2cnccc12 | 0.985 ± 0.012 | 0.985 ± 0.025 | 1.03 ± 0.01 | 1.007 ± 0.0058 | 1.002 ± 0.0072 | 0.968 ± 0.016
CC(=O)NNC(=O)N1Cc2ccccc2Oc2ccc(Cl)cc21 | 0.997 ± 0.0052 | 1.005 ± 0.0087 | 0.808 ± 0.34 | 1.01 ± 0.011 | 0.9977 ± 0.0015 | 0.9877 ± 0.0045
CNC[C@H](O)c1cccc(O)c1 [(R)-(-)-Phenylephrine hydrochloride] | 1.023 ± 0.0058 | 1.01 ± 0.015 | 1.017 ± 0.0058 | 0.902 ± 0.19 | 1.01 | 1.02 ± 0.015

SMILES | normalised cell viability [1] | normalised cell viability [2] | normalised cell viability [3] | normalised cell viability [4] | normalised cell viability [5] | normalised cell viability [6]
CNC[C@H](O)c1cccc(O)c1 [Phenylephrine HCl] | 1.02 ± 0.017 | 1.01 ± 0.025 | 1.03 ± 0.01 | 1.01 ± 0.02 | 1.007 ± 0.0058 | 1.001 ± 0.0085
Cc1nc(Nc2n[nH]c3c2CN(C(=O)N[C@H](CN(C)C)c2ccccc2)C3(C)C)c2sccc2n1 | 0.832 ± 0.033 | 0.29 ± 0.072 | 1.05 ± 0.015 | 0.763 ± 0.02 | 0.12 ± 0.011 | 0.0302 ± 0.0031
[Cl-].[Li+] [Lithium Chloride] | 1.007 ± 0.0058 | 0.998 ± 0.013 | 1.01 ± 0.013 | 1.01 ± 0.018 | 1.01 | 1.002 ± 0.0072
CCOc1ccn(-c2ccc(F)cc2)c(=O)c1C(=O)Nc1ccc(Oc2ccnc(N)c2Cl)c(F)c1 | 0.981 ± 0.034 | 0.832 ± 0.06 | 0.9887 ± 0.004 | 0.889 ± 0.034 | 1 ± 0.014 | 0.9513 ± 0.0029
CCn1cc(-c2ccnc3[nH]c(-c4cccc(CN(C)C)c4)cc23)c(-c2ccc(NC(=O)N(C)C)cc2)n1 | 0.802 ± 0.024 | 0.444 ± 0.01 | 0.919 ± 0.026 | 0.676 ± 0.022 | 0.509 ± 0.038 | 0.0863 ± 0.0092
CCN(CC)CCNC(=O)c1ccc(NC(C)=O)cc1 [N-Acetylprocainamide hydrochloride] | 0.9787 ± 0.0049 | 0.974 ± 0.0099 | 0.9943 ± 0.0067 | 0.977 ± 0.027 | 0.9883 ± 0.0038 | 0.9807 ± 0.0087
CCCCCCN(CCCCCC)C(=O)Cc1c(-c2ccc(F)cc2)[nH]c2ccccc12 [N,N-Dihexyl-2-(4-fluorophenyl)indole-3-acetamide] | 0.9957 ± 0.0051 | 0.909 ± 0.019 | 1.001 ± 0.009 | 1.02 ± 0.017 | 0.9867 ± 0.004 | 1.01 ± 0.01
N#C[C@@H]1CCCN1C(=O)CNC12CC3CC(CC(O)(C3)C1)C2 [Vildagliptin (LAF-237)] | 0.994 ± 0.0087 | 1 ± 0.011 | 0.9973 ± 0.0046 | 1.004 ± 0.01 | 0.998 ± 0.012 | 1.01
CC(C)C[C@H](NC(=O)CNC(=O)c1cc(Cl)ccc1Cl)B(O)O | 0.978 ± 0.0095 | 0.886 ± 0.03 | 1.04 ± 0.01 | 1.04 ± 0.011 | 0.311 ± 0.032 | 0.0506 ± 0.0038
CNc1cc(NS(=O)(=O)c2ccc(N)cc2)nc(NC)n1 [Ro 04-6790 dihydrochloride] | 0.997 ± 0.0027 | 0.997 ± 0.02 | 1.01 ± 0.024 | 0.983 ± 0.013 | 0.9827 ± 0.008 | 0.993 ± 0.01
Oc1ccc(Nc2nc(-c3ccc(Cl)cc3)cs2)cc1 | 1.01 ± 0.011 | 1.05 ± 0.021 | 1.03 ± 0.01 | 1.023 ± 0.0058 | 1.007 ± 0.0058 | 1 ± 0.014
N#Cc1ccc2[nH]c(O)c(-c3ccc(CN4CCOCC4)cn3)c2c1 | 1.11 ± 0.021 | 1.24 ± 0.021 | 1.053 ± 0.0058 | 1.11 ± 0.023 | 1.02 ± 0.011 | 1.05 ± 0.015
COc1cc2ncnc(Nc3ccc(Cl)cc3F)c2cc1OC | 0.9033 ± 0.0086 | 0.707 ± 0.0017 | 0.907 ± 0.018 | 0.827 ± 0.059 | 0.921 ± 0.011 | 0.799 ± 0.025
N[C@@H]1CCCN(c2c(/C=C3\SC(=O)NC3=O)cccc2-c2ccccc2)C1 | 0.899 ± 0.019 | 0.855 ± 0.032 | 0.909 ± 0.021 | 0.92 ± 0.027 | 0.9852 ± 0.0073 | 0.9982 ± 0.0072
CO[C@H]1C[C@@H]2CC[C@@H](C)[C@@](O)(O2)C(=O)C(=O)N2CCCC[C@H]2C(=O)O[C@H]([C@H](C)C[C@@H]2CC[C@@H](O)[C@H](OC)C2)CC(=O)[C@H](C)/C=C(\C)[C@@H](O)[C@@H](OC)C(=O)[C@H](C)C[C@H](C)/C=C/C=C/C=C/1C [Rapamycin (Sirolimus)] | 0.808 ± 0.029 | 0.747 ± 0.043 | 0.837 ± 0.041 | 0.803 ± 0.058 | 0.713 ± 0.036 | 0.655 ± 0.02
CO[C@H]1C[C@@H]2CC[C@@H](C)[C@@](O)(O2)C(=O)C(=O)N2CCCC[C@H]2C(=O)O[C@H]([C@H](C)C[C@@H]2CC[C@@H](O)[C@H](OC)C2)CC(=O)[C@H](C)/C=C(\C)[C@@H](O)[C@@H](OC)C(=O)[C@H](C)C[C@H](C)/C=C/C=C/C=C/1C [Sirolimus; RAPAMYCIN; Rapamycin(Sirolimus); Rapamycin] | 0.841 ± 0.032 | 0.775 ± 0.038 | 0.888 ± 0.018 | 0.886 ± 0.016 | 0.76 ± 0.025 | 0.654 ± 0.029
